# From patent US12415845B2 (priority 2018, dated 2025)
# Tested on: transferred T cells in mice bearing B16-mhgp100 tumors
# Assay: Persistence in spleen on day 10, control/citrate/potassium hydroxycitrate cultures
# Conditions: day 10 after transfer, gated on CD8+Ly5.1, vehicle 7.9
row,Structure (SMILES),percentage of cells CD45.1 positive/CD45.2 negative
1,"O=C(O)CC(O)(CC(=O)O)C(=O)O [Citrate, reference compound]",19.4%
2,"O=C([O-])CC(O)(C(=O)[O-])C(O)C(=O)[O-].[K+].[K+].[K+] (centres unmarked) [Potassium hydroxycitrate, potassium hydroxycitrate]",42.5%
